Results: the supplement of paper PMC4604168 (melanoma cell lines)
The list shows a part of the results. Single values are uncertain, as repeats are few or missing.

Assays:
Experiment in all cases: cell count relative to DMSO control; melanoma cells; higher = more viable cells
Details in all cases: library dose: standard library concentration; 72 h
SkMel28 = test system: SkMel28
SkMel2 = test system: SkMel2
SkMel30 = test system: SkMel30
SkMel5 = test system: SkMel5
UACC257 = test system: UACC257
UACC62 = test system: UACC62
WM115 = test system: WM115
WM1716 = test system: WM1716
WM3526 = test system: WM3526
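Note: cells treated in 1,536-well plates, then fixed and DAPI-stained, with nuclei counted from automated high-throughput microscope images.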

SMILES	cell count (SkMel28) [%]	cell count (SkMel2) [%]	cell count (SkMel30) [%]	cell count (SkMel5) [%]	cell count (UACC257) [%]	cell count (UACC62) [%]	cell count (WM115) [%]	cell count (WM1716) [%]	cell count (WM3526) [%]
C[C@]12O[C@H](C[C@]1(O)CO)n1c3ccccc3c3c4c(c5c6ccccc6n2c5c31)CNC4=O [Lestaurtinib] + CCN(CC)CCCCNc1ncc2cc(-c3cc(OC)cc(OC)c3)c(NC(=O)NC(C)(C)C)nc2n1 [PD173074] (first compound 0.02 µM, partner dose 0.5 µM)	57.9	87.9	86.1	60.7	110	75.6	81.4	90.6	67.1
N.N.[Cl][Pt][Cl] [cisplatin] + O=C1NC(=O)/C(=C/c2ccc(-c3ccc(F)cc3O)o2)S1 [AS252424] (first compound 8 µM, partner dose 5 µM)	37.2	78.9	99.6	65.6	77.5	86	94.8	97.7	91
C[C@]12O[C@H](C[C@]1(O)CO)n1c3ccccc3c3c4c(c5c6ccccc6n2c5c31)CNC4=O [Lestaurtinib] + O=S(=O)(c1ccccc1)N(CC(F)(F)F)c1ccc(C(O)(C(F)(F)F)C(F)(F)F)cc1 [T0901317] (first compound 0.02 µM, partner dose 7 µM)	65.3	88.6	101	64.7	77.3	87.7	92.5	101	61.1
N.N.[Cl][Pt][Cl] [cisplatin] + CCc1ccc(CCOc2ccc(CC3SC(=O)NC3=O)cc2)nc1 [pioglitazone] (first compound 8 µM, partner dose 10 µM)	47	73.4	98.4	82	70.8	85.2	106	86	89.1
N.N.[Cl][Pt][Cl] [cisplatin] + CCCCCCCCCCCC1=C(O)C(=O)C=C(O)C1=O [Embelin] (first compound 8 µM, partner dose 6 µM)	66	112	95.5	90.6	65.1	79.9	92.3	77.2	88.1
Cn1cc(C2=C(c3cn(C4CCN(Cc5ccccn5)CC4)c4ccccc34)C(=O)NC2=O)c2ccccc21 [Enzastaurin] + COc1ccc(-c2ccc3c(N4CCOCC4)nc(N4C[C@@H](C)O[C@@H](C)C4)nc3n2)cc1CO [KU0063794] (first compound 4 µM, partner dose 0.1 µM)	60.4	70.2	83.7	61.2	103	77	101	87	83.5
Cn1cc(C2=C(c3cn(C4CCN(Cc5ccccn5)CC4)c4ccccc34)C(=O)NC2=O)c2ccccc21 [Enzastaurin] + Oc1nc(-c2ccc(C(F)(F)F)cc2)nc2c1CSCC2 [XAV939] (first compound 4 µM, partner dose 10 µM)	93.3	89	91.3	62	80.2	79.3	108	56.7	82.6
N.N.[Cl][Pt][Cl] [cisplatin] + O=S(=O)(c1ccccc1)N(CC(F)(F)F)c1ccc(C(O)(C(F)(F)F)C(F)(F)F)cc1 [T0901317] (first compound 8 µM, partner dose 7 µM)	67.6	89	97.3	83.2	81.2	73.1	108	104	87.2
C[C@]12O[C@H](C[C@]1(O)CO)n1c3ccccc3c3c4c(c5c6ccccc6n2c5c31)CNC4=O [Lestaurtinib] + Cc1cc([N+](=O)[O-])ccc1NS(=O)(=O)c1cc(Cl)ccc1Cl [FH535] (first compound 0.02 µM, partner dose 5 µM)	51.1	74.5	74.7	54.3	80.4	72	72.5	72.9	70.9
N.N.[Cl][Pt][Cl] [cisplatin] + Oc1cc(-c2nc(-c3ccccc3)[nH]c2-c2ccncc2)ccc1Cl [L779450] (first compound 8 µM, partner dose 1 µM)	41.8	31.4	81.6	67	88.9	49.1	57.5	78.6	44.4
C[C@]12O[C@H](C[C@]1(O)CO)n1c3ccccc3c3c4c(c5c6ccccc6n2c5c31)CNC4=O [Lestaurtinib] + CC(C)CCN1c2nc(Nc3cc(F)c(O)c(F)c3)ncc2N(C)C(=O)C1C [BID1870] (first compound 0.02 µM, partner dose 1 µM)	49.8	61.9	49.3	63.9	74.2	49.9	53.3	72.4	45.2
C[C@]12O[C@H](C[C@]1(O)CO)n1c3ccccc3c3c4c(c5c6ccccc6n2c5c31)CNC4=O [Lestaurtinib] + Oc1nc(-c2ccc(C(F)(F)F)cc2)nc2c1CSCC2 [XAV939] (first compound 0.02 µM, partner dose 10 µM)	55.6	103	88.2	61.9	83.1	99.1	75.9	70.3	75.9
